In the supplement of paper PMC3334620:
Whole data set: some 33,000 sequences, median “E-score (-0.5 to 0.5)” near -0.035, cut for the highest 2% near 0.35. Some of the results follow.

These sequences were tested against T1, Pdr3 (UniProt P33200) (assay: PBM E-score (8-mer binding enrichment) (E-score (-0.5 to 0.5)); higher = stronger / more preferred TF binding; most listed sequences are background and not binding sites). Conditions: protein concentration: 200 nM; construct: GST-full length.
T1 sequence: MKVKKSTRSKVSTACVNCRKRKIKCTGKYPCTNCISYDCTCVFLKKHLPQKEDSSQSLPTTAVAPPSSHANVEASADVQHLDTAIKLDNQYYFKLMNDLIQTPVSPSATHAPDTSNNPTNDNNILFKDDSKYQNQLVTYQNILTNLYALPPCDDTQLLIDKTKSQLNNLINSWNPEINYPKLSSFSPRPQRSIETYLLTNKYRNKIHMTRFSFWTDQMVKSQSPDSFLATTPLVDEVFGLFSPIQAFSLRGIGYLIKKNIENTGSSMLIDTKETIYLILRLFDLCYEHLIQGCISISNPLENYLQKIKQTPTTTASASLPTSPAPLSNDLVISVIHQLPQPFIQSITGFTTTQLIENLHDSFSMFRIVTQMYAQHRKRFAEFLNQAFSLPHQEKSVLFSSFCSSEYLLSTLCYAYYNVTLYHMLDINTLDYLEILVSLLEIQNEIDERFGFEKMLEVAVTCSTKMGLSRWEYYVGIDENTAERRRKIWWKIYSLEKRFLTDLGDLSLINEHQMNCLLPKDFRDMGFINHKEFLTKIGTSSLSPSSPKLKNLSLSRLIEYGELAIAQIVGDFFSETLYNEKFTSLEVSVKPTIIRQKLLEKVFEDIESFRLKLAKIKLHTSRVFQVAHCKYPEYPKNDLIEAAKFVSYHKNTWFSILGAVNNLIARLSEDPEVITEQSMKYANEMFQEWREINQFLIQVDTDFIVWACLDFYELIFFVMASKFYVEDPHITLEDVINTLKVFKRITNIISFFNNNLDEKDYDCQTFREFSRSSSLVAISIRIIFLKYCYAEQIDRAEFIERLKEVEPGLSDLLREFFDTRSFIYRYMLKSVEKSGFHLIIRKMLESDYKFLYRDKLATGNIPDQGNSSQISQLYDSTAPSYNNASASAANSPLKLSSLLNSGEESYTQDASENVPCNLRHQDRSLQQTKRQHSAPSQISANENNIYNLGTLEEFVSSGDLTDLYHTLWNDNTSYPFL
Summary of the method: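 Detection of bound protein used fluorescent anti-GST, with scans normalised by masliner. The proteins were GST-tagged yeast transcription factors applied at about 100-200 nM to universal all-10-mer Agilent arrays made double-stranded by primer extension. Each ungapped eight-base word, pooled with its reverse complement, was scored with an E-score from the Universal PBM Analysis Suite.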

Sequence | PBM E-score
CATGTATA | -0.107
AGGTCTCG | -0.0596
GTTTCGAA | -0.103
AGCCCCCA | -0.313
TCCTTGCA | 0.0152
GTACGAAC | 0.105
GCAGAACA | 0.0155
GACCAGAA | -0.0571
ACCAACCG | 0.131
GCGAGGCC | -0.0699
GCCGGGCC | 0.12
ACGAATAA | 0.0662
GGGCCTTA | -0.127
CTACTGGA | -0.111
TCCGTGAA | 0.292
ACGATCGC | 0.0932
AGCGAACA | 0.0441
AGGGACAA | -0.00735
GTAAAGGA | -0.0548
CACTTGAG | -0.186
ACCCCCTA | -0.329
AGATATCC | 0.134

Sequence | PBM E-score
AAATGATT | 0.242
ATGTCAGA | -0.153
GAACAAGC | -0.0175
ATCATTAG | -0.196
GAAAAGCC | 0.102
ATCATACA | -0.0423
ACCTGGTA | -0.121
ATTAGGTG | -0.0638
ACAGCTAA | -0.183
AGGTCAGG | -0.144
ATCTGGAC | -0.0423
GGATTTCA | 0.199
ATTTTAGC | -0.0617
TATGGGCA | -0.0617
CGCGTGTC | 0.21
TGTTTAAA | -0.205
GCGGCCCC | 0.0899
AGGGCTAC | -0.225
AGCAGCTC | -0.121
ATGGGTCC | 0.14
CAGATCGC | 0.113
AGCGGGAG | 0.0627

Sequence | PBM E-score
ATATCCCC | 0.0317
GGGTCACC | -0.159
CGCTCATC | 0.013
GCGGAAGA | 0.393
CTTGGTCA | -0.0783
GCACGCTA | 0.0255
AGAGTCGA | -0.0208
CTGACGAA | -0.0238
ATGGGATC | 0.0712
CCCCACCA | 0.0754
GCACTGCA | -0.108
GACGCTAA | -0.213
ATCTAGTC | -0.00378
AAAACTGT | -0.0893
AAACTTAC | -0.119
AGCTAAAC | -0.256
CGTCCTCC | 0.0652
CGTTATGA | -0.0992
CGGTCACG | 0.00048
GCCGGCTA | 0.248
AGCAAACC | 0.0426
ACGGTCCC | 0.117

Sequence | PBM E-score
CTGGAACA | 0.117
GCGCTGCA | 0.013
GTCCCGCA | 0.229
CCCGCTGC | 0.142
CGCGCTGC | 0.00597
ACAGGGCA | -0.0902
GTCTTATA | -0.143
GGTATTCA | 0.0285
CACCTGTC | -0.00221
AGCACTCC | 0.127
CAGATAAG | -0.172
ACGCGAAA | -0.109
CTCGATCA | 0.00171
AGTTGATA | 0.0574
AGTCACTC | -0.123
GACTCACA | -0.189
CTGAACAG | -0.0635
GGATTGCC | 0.15
ATTTAAAT | -0.0161
ATGACTCG | -0.00485
